From paper PMC9911399, “Two distinct binding modes provide the RNA-binding protein RbFox with extraordinary sequence specificity” come the findings set out here.

Positions count from the first letter of the chain named. This is one part of the list.

B1: CGUAGAA (DNA:RNA)
RNA: GGGAGACCGGAAUUCAGAUUGUCCCGUAGAAUUAAAUCCCGUCGUAGCCACCA
DNA 1: CAATCTGAATTCCGGTCTCCC
DNA 2: TGGTGGCTACGACGGGATT
B2: UUUUUGA (DNA:RNA)
RNA: B1 RNA with C25U, G26U, A28U, G29U, A30G
DNA 1: CAATCTGAATTCCGGTCTCCC
DNA 2: TGGTGGCTACGACGGGATT
B3: GAUAACG (DNA:RNA)
RNA: B1 RNA with C25G, G26A, G29A, A30C, A31G
DNA 1: CAATCTGAATTCCGGTCTCCC
DNA 2: TGGTGGCTACGACGGGATT
B4: AGGUUCC (DNA:RNA)
RNA: B1 RNA with C25A, U27G, A28U, G29U, A30C, A31C
DNA 1: CAATCTGAATTCCGGTCTCCC
DNA 2: TGGTGGCTACGACGGGATT
B5: AGCUCUC (DNA:RNA)
RNA: B1 RNA with C25A, U27C, A28U, G29C, A30U, A31C
DNA 1: CAATCTGAATTCCGGTCTCCC
DNA 2: TGGTGGCTACGACGGGATT
B6: UGGGCGA (DNA:RNA)
RNA: B1 RNA with C25U, U27G, A28G, G29C, A30G
DNA 1: CAATCTGAATTCCGGTCTCCC
DNA 2: TGGTGGCTACGACGGGATT
B7: ACCGGCC (DNA:RNA)
RNA: B1 RNA with C25A, G26C, U27C, A28G, A30C, A31C
DNA 1: CAATCTGAATTCCGGTCTCCC
DNA 2: TGGTGGCTACGACGGGATT
B8: AGAGCAU (DNA:RNA)
RNA: B1 RNA with C25A, U27A, A28G, G29C, A31U
DNA 1: CAATCTGAATTCCGGTCTCCC
DNA 2: TGGTGGCTACGACGGGATT
B9: UAGCAUG (DNA:RNA)
RNA: GGGAGACCGGAAUUCAGAUUGUCCUAGCAUGUUAAAUCCCGUCGUAGCCACCA
DNA 1: CAATCTGAATTCCGGTCTCCC
DNA 2: TGGTGGCTACGACGGGATT
B10: GCUGGAG (DNA:RNA)
RNA: B1 RNA with C25G, G26C, A28G, A31G
DNA 1: CAATCTGAATTCCGGTCTCCC
DNA 2: TGGTGGCTACGACGGGATT
B11: CAAGCUG (DNA:RNA)
RNA: B9 RNA with U25C, G27A, C28G, A29C
DNA 1: CAATCTGAATTCCGGTCTCCC
DNA 2: TGGTGGCTACGACGGGATT
B12: AUAGAAA (DNA:RNA)
RNA: B1 RNA with C25A, G26U, U27A, A28G, G29A
DNA 1: CAATCTGAATTCCGGTCTCCC
DNA 2: TGGTGGCTACGACGGGATT
B13: UGCUCGA (DNA:RNA)
RNA: B1 RNA with C25U, U27C, A28U, G29C, A30G
DNA 1: CAATCTGAATTCCGGTCTCCC
DNA 2: TGGTGGCTACGACGGGATT
B14: CUAAGUC (DNA:RNA)
RNA: B1 RNA with G26U, U27A, A30U, A31C
DNA 1: CAATCTGAATTCCGGTCTCCC
DNA 2: TGGTGGCTACGACGGGATT
B15: AAGGAAG (DNA:RNA)
RNA: B9 RNA with U25A, C28G, U30A
DNA 1: CAATCTGAATTCCGGTCTCCC
DNA 2: TGGTGGCTACGACGGGATT
B16: ACAGGAU (DNA:RNA)
RNA: B1 RNA with C25A, G26C, U27A, A28G, A31U
DNA 1: CAATCTGAATTCCGGTCTCCC
DNA 2: TGGTGGCTACGACGGGATT
B17: GACCUAU (DNA:RNA)
RNA: B9 RNA with U25G, G27C, A29U, U30A, G31U
DNA 1: CAATCTGAATTCCGGTCTCCC
DNA 2: TGGTGGCTACGACGGGATT
B18: UUAUAAC (DNA:RNA)
RNA: B9 RNA with A26U, G27A, C28U, U30A, G31C
DNA 1: CAATCTGAATTCCGGTCTCCC
DNA 2: TGGTGGCTACGACGGGATT
B19: ACUUUUU (DNA:RNA)
RNA: B1 RNA with C25A, G26C, A28U, G29U, A30U, A31U
DNA 1: CAATCTGAATTCCGGTCTCCC
DNA 2: TGGTGGCTACGACGGGATT
B20: ACCGCUC (DNA:RNA)
RNA: B9 RNA with U25A, A26C, G27C, C28G, A29C, G31C
DNA 1: CAATCTGAATTCCGGTCTCCC
DNA 2: TGGTGGCTACGACGGGATT
B21: GAUAUUA (DNA:RNA)
RNA: B1 RNA with C25G, G26A, G29U, A30U
DNA 1: CAATCTGAATTCCGGTCTCCC
DNA 2: TGGTGGCTACGACGGGATT
B22: UUACCUG (DNA:RNA)
RNA: B9 RNA with A26U, G27A, A29C
DNA 1: CAATCTGAATTCCGGTCTCCC
DNA 2: TGGTGGCTACGACGGGATT
B23: AAACAUC (DNA:RNA)
RNA: B9 RNA with U25A, G27A, G31C
DNA 1: CAATCTGAATTCCGGTCTCCC
DNA 2: TGGTGGCTACGACGGGATT
B24: UUGAUGG (DNA:RNA)
RNA: B9 RNA with A26U, C28A, A29U, U30G
DNA 1: CAATCTGAATTCCGGTCTCCC
DNA 2: TGGTGGCTACGACGGGATT
B25: CGCUUGC (DNA:RNA)
RNA: B1 RNA with U27C, A28U, G29U, A30G, A31C
DNA 1: CAATCTGAATTCCGGTCTCCC
DNA 2: TGGTGGCTACGACGGGATT
B26: ACGAAUG (DNA:RNA)
RNA: B9 RNA with U25A, A26C, C28A
DNA 1: CAATCTGAATTCCGGTCTCCC
DNA 2: TGGTGGCTACGACGGGATT
B27: GCGCGAU (DNA:RNA)
RNA: B1 RNA with C25G, G26C, U27G, A28C, A31U
DNA 1: CAATCTGAATTCCGGTCTCCC
DNA 2: TGGTGGCTACGACGGGATT
B28: AUGAAAA (DNA:RNA)
RNA: B1 RNA with C25A, G26U, U27G, G29A
DNA 1: CAATCTGAATTCCGGTCTCCC
DNA 2: TGGTGGCTACGACGGGATT
B29: UUCUUGU (DNA:RNA)
RNA: B9 RNA with A26U, G27C, C28U, A29U, U30G, G31U
DNA 1: CAATCTGAATTCCGGTCTCCC
DNA 2: TGGTGGCTACGACGGGATT
B30: GUAUCCG (DNA:RNA)
RNA: B9 RNA with U25G, A26U, G27A, C28U, A29C, U30C
DNA 1: CAATCTGAATTCCGGTCTCCC
DNA 2: TGGTGGCTACGACGGGATT
B31: ACUCUUA (DNA:RNA)
RNA: B1 RNA with C25A, G26C, A28C, G29U, A30U
DNA 1: CAATCTGAATTCCGGTCTCCC
DNA 2: TGGTGGCTACGACGGGATT

For the assay, the target named is T1, RBFOX1 RRM RbFoxmut (Fox-RRM*) (Homo sapiens, UniProt Q9NWB1 109-208, R118D;E147R;N151S;E152T).
T1 sequence: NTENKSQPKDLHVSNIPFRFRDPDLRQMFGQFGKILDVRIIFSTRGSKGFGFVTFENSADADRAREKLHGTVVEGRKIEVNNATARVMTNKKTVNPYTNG
In words: EMSA; HiTS-Eq, 1 nM pool, 10 min; buffer printed only for the single-RNA assays: 10 mM Tris pH 7.5, 150 mM NaCl, 3.4 mM EDTA, 0.001% NP-40, 30 C. The settings on record: tags: His6 N-terminal (pET28a); label: 5' 32P. In outline:
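Purified wild-type or mutant RbFox RRM at increasing concentrations was equilibrated with 1 nM of 5′-radiolabelled RNA carrying 7 randomized nucleotides for 10 min in 50 µL. Unbound RNA was separated by 8% native PAGE and sequenced. Relative association constants came from read-count changes of each RNA species compared with the control reaction, normalised to the cognate motif.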
On the technique in general: A gel shift assay detects complexes by their altered migration in electrophoresis.
As to B1, the binding signal was 0.134 KA relative to UGCAUGU.
The value for B2 was 0.0679 KA relative to UGCAUGU.
The figure for B3 is 0.0556 KA relative to UGCAUGU; for B4 it is 0.112 KA relative to UGCAUGU; for B5 it is 0.0391 KA relative to UGCAUGU.
Take B6: the binding signal was 0.118 KA relative to UGCAUGU.
The figure for B7 is 0.128 KA relative to UGCAUGU; for B8 it is 0.0996 KA relative to UGCAUGU.
The figure for B9 is 0.819 KA relative to UGCAUGU; for B10 it is 0.114 KA relative to UGCAUGU; for B11 it is 0.0763 KA relative to UGCAUGU.
The figure for B12 is 0.13 KA relative to UGCAUGU; for B13 it is 0.186 KA relative to UGCAUGU.
As for B14, the binding signal was 0.0682 KA relative to UGCAUGU.
The figure for B15 is 0.113 KA relative to UGCAUGU.
On to B16, for which the binding signal was 0.0995 KA relative to UGCAUGU.
Consider B17, for which the binding signal was 0.119 KA relative to UGCAUGU.
The value for B18 was 0.0913 KA relative to UGCAUGU; that for B19 was 0.0998 KA relative to UGCAUGU; that for B20 was 0.0667 KA relative to UGCAUGU.
The value for B21 was 0.0958 KA relative to UGCAUGU; that for B22 was 0.106 KA relative to UGCAUGU; that for B23 was 0.0492 KA relative to UGCAUGU.
The figure for B24 is 0.101 KA relative to UGCAUGU; for B25 it is 0.162 KA relative to UGCAUGU; for B26 it is 1.2 KA relative to UGCAUGU.
On to B27, for which the binding signal is 0.0848 KA relative to UGCAUGU.
The value for B28 was 0.116 KA relative to UGCAUGU.
The figure for B29 is 0.158 KA relative to UGCAUGU; for B30 it is 0.201 KA relative to UGCAUGU.
For the molecule B31, the binding signal is 0.0894 KA relative to UGCAUGU.
